Among all 54,000 compounds or so, about 120 (0.22%) were called active. The shares of active, inactive and inconclusive entries below differ from those in the screen. The call rests on the fitted dose curve; in most records, active means well fitted inhibition curve with a large enough effect; inconclusive means small, poorly fitted or top-dose-only effect, or effect the other way; inactive means flat fitted curve, though single readings scatter. No potency is given beside an inconclusive call; the fits are too rough.
molecular target: Fumarate hydratase, mitochondrial (Homo sapiens) (UniProt P07954); assay: Identification of activators of human fumarate hydratase by quantitative high-throughput screening; details: FH coupled MDH/diaphorase resazurin fluorescence, 15 min; activity change, negative = inhibition: at 79.9 µM (top of the series); further: the screen sought activators but most active calls are inhibition curves; nearly all actives have a fitted effect of over 45% in size
On the % scale 0 is the no-effect control and ±100 the full control effect; potency means the concentration at half of the fitted maximal effect; tags describe the fitted curve by direction and shape.

UniProt P07954, sequence (P07954 whole entry, looked up): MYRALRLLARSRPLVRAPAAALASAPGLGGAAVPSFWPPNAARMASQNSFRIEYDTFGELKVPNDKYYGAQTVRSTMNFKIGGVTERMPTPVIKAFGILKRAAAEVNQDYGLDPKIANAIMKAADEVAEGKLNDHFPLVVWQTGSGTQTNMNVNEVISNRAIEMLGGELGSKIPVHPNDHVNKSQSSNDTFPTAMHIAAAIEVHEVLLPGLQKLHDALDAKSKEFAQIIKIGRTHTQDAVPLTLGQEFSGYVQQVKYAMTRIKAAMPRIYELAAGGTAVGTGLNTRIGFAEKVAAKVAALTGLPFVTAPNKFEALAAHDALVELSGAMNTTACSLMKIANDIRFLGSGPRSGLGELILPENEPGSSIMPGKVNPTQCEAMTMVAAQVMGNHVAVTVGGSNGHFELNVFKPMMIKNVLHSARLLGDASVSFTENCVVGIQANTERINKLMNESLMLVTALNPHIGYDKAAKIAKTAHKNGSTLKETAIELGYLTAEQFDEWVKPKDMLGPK

| SMILES | activity change, negative = inhibition | Potency |
| --- | --- | --- |
| Cc1ccc(C(=O)/C=C/c2cn(CC(O)CN3CCCCCC3)c3ccccc23)cc1 (centres undefined) | inactive: -9.26% | – |
| COc1cc(NS(=O)(=O)c2ccc(NC(=O)c3ccc(OC)c(Br)c3)cc2)nc(OC)n1 | – | inconclusive [inhibitor, single point] |
| CC[C@@H](C)[C@@H]1OC2(C=C[C@H]1C)C[C@@H]1C[C@H](C/C=C(\C)[C@H](O[C@H]3C[C@H](OC)[C@H](O[C@H]4C[C@H](OC)[C@H](NC(C)=O)[C@H](C)O4)[C@H](C)O3)[C@H](C)/C=C/C=C3\CO[C@H]4[C@H](O)C(C)=C[C@@H](C(=O)O1)[C@@]34O)O2 (some centres undefined) | – | inconclusive [inhibitor, partial curve, poor fit] |
| CCCOc1ccc(-c2cccc(NS(=O)(=O)c3ccc(CC)cc3)c2)nn1 | – | inconclusive [inhibitor, partial curve, poor fit] |
| Cn1c(=O)c2c(n3c4ccccc4nc13)NC(=O)CC2c1cccc(Cl)c1 (centres undefined) | inactive: -25.1% | – |
| C[C@](N)(Cc1ccc(O)c(O)c1)C(=O)O | – | inconclusive [inhibitor, single point] |
| CCc1cc2c(cc1N1CCC(N3CCOCC3)CC1)C(C)(C)c1[nH]c3cc(C#N)ccc3c1C2=O | – | inconclusive [activator, full curve, poor fit] |
| Cc1ccc(N2CC(c3nc(-c4ccc(Cl)cc4)no3)CC2=O)cc1F (centres undefined) | inactive: -5.02% | – |
| CN1C(=O)c2ccccc2C1=O | inactive: 9.23% | – |
| COc1cc(Cl)c(C)cc1NC(=O)CSc1nc2c(c(=O)[nH]1)CCC2 | – | inconclusive [inhibitor, partial curve, poor fit] |
| COc1ccccc1NC(=O)CSc1nnc(NC(=O)NC2CCCCC2)s1 | inactive: -3.37% | – |
| COc1ccccc1/C=C/c1nc(C#N)c(N2CCN(C)CC2)o1 | inactive: -17.9% | – |
| Cc1nn(-c2ccccc2)c2c1cc1c(=O)[nH]c(=O)nc-1n2-c1cccc(Cl)c1 | – | inconclusive [inhibitor, single point] |
| COc1ccc(C(=O)N2CCC(c3nc4ccccc4s3)CC2)cc1Cl | – | inconclusive [inhibitor, partial curve, poor fit] |
| Cc1oc(-c2cccc(Cl)c2)nc1CN1CCCC(C(=O)NCCc2ccc(Cl)cc2)C1 (centres undefined) | – | inconclusive [inhibitor, partial curve] |
| Nc1ccc(-c2ccnc(NCCCNC(=O)c3c(Cl)cccc3Cl)n2)cc1 | inactive: -3.49% | – |
| COc1ccc(Cl)cc1NC(=O)CSc1nc2ccccc2c2nc(-c3ccccc3)nn12 | – | inconclusive [inhibitor, single point] |
| Cc1ccc(C(=O)Nc2ccccc2)cc1S(=O)(=O)Nc1ccc(Br)cc1 | – | inconclusive [inhibitor, single point] |
| Cc1ccc(OCc2nc(-c3ccc(C(=O)N4CCN(c5cccc(C(F)(F)F)c5)CC4)cc3)oc2C)cc1 | – | inconclusive [inhibitor, partial curve, poor fit] |
| CC(C)CN(CCCNC(=O)c1cc(=O)[nH]c2ccc(S(=O)(=O)N3CCCC3)cc12)CC(C)C | inactive: 5.99% | – |

| SMILES | activity change, negative = inhibition | Potency |
| --- | --- | --- |
| CN1CCc2c(sc(NC(=O)CSc3ccc(F)cc3)c2-c2nc3ccccc3s2)C1 | inactive: 3.99% | – |
| Cc1ccc(NC(=O)c2oc3ccccc3c2NC(=O)c2ccc(F)c(F)c2)cc1 | – | inconclusive [inhibitor, partial curve, poor fit] |
| CC(C)C(=O)Oc1ccc(CO)cc1[C@H](CCN(C(C)C)C(C)C)c1ccccc1 | – | inconclusive [activator, partial curve] |
| Cc1cccc(N2CCN(C(=O)c3ccc4c(Cl)c5c(nc4c3)CCCC5)CC2C)c1 (centres undefined) | – | inconclusive [inhibitor, single point] |
| O=C(CN1CCCN(S(=O)(=O)c2ccc(Br)cc2)CC1)Nc1cccc(C(F)(F)F)c1 | – | inconclusive [inhibitor, partial curve, poor fit] |
| CN(C(=O)CSc1nc(C2CCCC2)nc2c1c(=O)n(C)c(=O)n2C)c1ccccc1 | – | inconclusive [inhibitor, partial curve, poor fit] |
| CCCCN1C(=O)c2[nH]nc(-c3ccccc3O)c2C1c1ccc(OCc2ccccc2)cc1 (centres undefined) | inactive: -20.2% | – |
| CC1CCN(S(=O)(=O)c2ccc3c(c2)c(=O)c(C(=O)NCCc2ccccc2)cn3C)CC1 | – | inconclusive [inhibitor, partial curve] |
| Cc1ccc(S(=O)(=O)N2CCCc3cc(NS(=O)(=O)c4cccc(Cl)c4)ccc32)cc1 | – | inconclusive [inhibitor, single point] |
| COc1ccccc1NC(=O)CSc1nnc(NC(=O)Nc2ccc(C)cc2)s1 | inactive: -2.17% | – |
| CC(C)c1ccc(NC(=O)CSc2nc(=O)n(Cc3ccccn3)c3c2CCC3)cc1 | – | inconclusive [inhibitor, partial curve, poor fit] |
| CCOC(=O)c1ccc(NC(=O)CSc2cn(CC(=O)N3CCCC3)c3ccccc23)cc1 | – | inconclusive [inhibitor, partial curve] |
| Cc1ccc(Nc2sc(C(=O)c3ccccc3)c(N)c2C(=O)Nc2ccc(Cl)cc2)cc1 | inactive: -10.4% | – |
| C=CC(=O)N1CCN(C(=O)c2cc(-c3cc(Cl)ccc3Cl)c(Cl)cc2OC)CC1 | inactive: -4.5% | – |
| C[C@@H]1O[C@@H](O[C@@H]2CO[C@@H](O[C@H]3CC[C@@]4(C)C(CC[C@]5(C)C4CC=C4[C@@H]6CC(C)(C)CC[C@]6(C(=O)O[C@@H]6O[C@H](CO)[C@@H](O)[C@H](O)[C@H]6O)CC[C@]45C)[C@]3(C)CO)[C@H](O)[C@H]2O[C@@H]2O[C@H](CO)[C@@H](O)[C@H](O)[C@H]2O)[C@H](O)[C@H](O)[C@H]1O (some centres undefined) | – | inconclusive [activator, single point] |
| CCOc1ccc(C(=O)OCc2cc(=O)n3cc(C)sc3n2)cc1 | – | inconclusive [activator, single point] |
| CC(C)N1CCc2nc(SCC(=O)Nc3cccc(F)c3)[nH]c(=O)c2C1 | – | inconclusive [inhibitor, partial curve, poor fit] |
| C=CC(C)(O)CC[C@@H]1[C@@]2(C)CCCC(C)(C)C2CC[C@@]1(C)O (some centres undefined) | inactive: -8.66% | – |
| CCc1ccccc1NC(=O)c1sc(-n2nc(C)c(Cc3ccc4c(c3)OCO4)c2C)nc1C | inactive: -21.9% | – |
| CCOC(=O)C1CCCN(S(=O)(=O)c2ccc3[nH]c(=O)oc3c2)C1 (centres undefined) | – | inconclusive [inhibitor, partial curve, poor fit] |

| SMILES | activity change, negative = inhibition | Potency |
| --- | --- | --- |
| COCc1cc(C)nc2sc3c(c12)NC(c1ccc(O)cc1)N(c1ccc(C)cc1)C3=O (centres undefined) | – | inconclusive [inhibitor, partial curve, poor fit] |
| COc1ccc(CNC(=O)c2cnn(-c3ccc(C)cc3)c2-n2cccc2)cc1OC | inactive: -4.43% | – |
| Cc1ccc(C)c(NC(=O)NCc2ccc3c(c2)CCN3C(=O)c2ccccc2)c1 | inactive: -5.5% | – |
| COc1ccc(Nc2cc(C)c3cc(NC(=O)c4cc(OC)cc(OC)c4)ccc3n2)cc1 | – | inconclusive [inhibitor, partial curve, poor fit] |
| O=C(Nc1ccc(Cl)cc1)Nc1ccc(Cl)c(C(F)(F)F)c1 | inactive: -22.9% [at 53.3 µM] | – |
| CCOc1ccc2oc(=O)cc(CN3CCN(c4ccccc4)CC3)c2c1 | inactive: -9.76% | – |
| Cc1cc(-c2ccc(S(=O)(=O)Nc3ccc(Br)c(C)c3)s2)on1 | – | inconclusive [inhibitor, partial curve, poor fit] |
| COc1ccc(-c2noc(-c3cccc(OC)c3OC)n2)cc1 | – | inconclusive [inhibitor, single point] |
| COc1ccc(N(Cc2cccs2)C(=O)COc2cc(C)c(Cl)c(C)c2)cc1 | – | inconclusive [inhibitor, partial curve] |
| Cc1ccccc1Nc1nnc(-c2ccc(C)c(S(=O)(=O)N3CCOCC3)c2)c2ccccc12 | – | inconclusive [inhibitor, single point] |
| CCOC(=O)c1c(C)[nH]c(C)c1S(=O)(=O)N1CCCC(C(=O)Nc2ccc(OC)c(Cl)c2)C1 (centres undefined) | – | inconclusive [inhibitor, full curve, poor fit] |
| COc1cccc(C(=O)Nc2c(C(=O)NC(C)(C)C)oc3ccccc23)c1 | – | inconclusive [inhibitor, partial curve, poor fit] |
| COc1cc(OC)c(N(C)C(=O)c2nn(C)c3c2CSc2ccccc2-3)cc1Cl | – | inconclusive [inhibitor, single point] |
| COc1ccc(NC(=O)CSc2oc(-c3cccs3)nc2S(=O)(=O)c2ccc(Br)cc2)c(OC)c1 | – | inconclusive [inhibitor, full curve] |
| Cc1ccc(Nc2sc(C(=O)c3ccccc3)c(N)c2C(=O)NC(C)C)cc1 | – | inconclusive [activator, partial curve, poor fit] |
| Cc1cc(C(C)(C)C)c(O)c(C(C)(C)C)c1 | inactive: -2.62% [at 53.3 µM] | – |
| CSc1cccc(-c2nnc(NC(=O)c3ccc4c(c3)OCCO4)o2)c1 | – | inconclusive [activator, partial curve, poor fit] |
| COc1ccc(CCCc2nnc(SCC(=O)Nc3ccccc3F)o2)cc1C | – | inconclusive [inhibitor, single point] |
| CCc1ccc(Oc2nc3c(C)cccn3c(=O)c2/C=C(\C#N)c2nc3ccccc3s2)cc1 | – | inconclusive [inhibitor, partial curve, poor fit] |

— PubChem BioAssay AID1347055 (National Center for Advancing Translational Sciences (NCATS), 2019)
